Data taken from the RNAGym collection of RNA variant scans (doi:10.7554/elife.90254).
Read counts are not given, so values of variants with three or more changes are uncertain.

B1: LINE1-mini (parent)
chain: GGCAGAGCUCAACACAGCGUGGCAAAGUGGCUGUGGCUAGACUGCC

Variants of: B1
Experiment: self-cleavage, relative activity (ratio to wild type); higher = more cleavage; in vitro, sequencing; the parent is a self-cleaving ribozyme
GGGAGAGCUCAACAAAGCGAGCCAAAGUGGCUGUGGCUAUACUGCC showed a self-cleavage of 0.08.
In the case of GGGAGAGCUCAACAGAGCGUGGCAAAGUGGCUGUGGAUAGACUGCC, the self-cleavage is reported as 0.06.
GGGAGAGCUCAACAGAGCGUCGCAAAGUGGCUGUGGUUCGAUAGCC gave a self-cleavage of 0.02.
For GGGAGAGCUCAACAGAGCGUGGCAAAGUGGCUGUGGCUAUACUGCC, the self-cleavage was 0.03.
GGGAGAGCUCAACAUAGCGUGGCACAGUGGCUUUGGCUAGACUGCC showed a self-cleavage of 0.17.
Variant GGGAGAGCUCAACAUAGCGUGGCAAUAUGGCUUUGGCUAGACUGCC has a self-cleavage of 0.04.
For GGGAGAGCUCAACAUAGCGUGGCAAAGUGGCUGUGGCUAGGCUGCC, the self-cleavage was 0.27.
Work on GGGAGAGCUCAACAUAGCAUGGCAAAGUGGCUGUGGCUAGACUGCC yielded a self-cleavage of 0.1.
GGGAGAGCUCAACAUAGCGUGGCAAAAUGGUUGUGUCUAGACUGCC showed a self-cleavage of 0.03.
With GGGAGAGCUCAACACAGAGUGGCAAAGUGGAUGUGGCUAGACUGCC the self-cleavage was 0.08.
In the case of GGGAGAGCUCAACACAGAGUGGCAAAGUGGCUGUGGCUAGAUUGCC, the self-cleavage is reported as 0.13.
GGGAGAGCUCAACACAGAGUGCCAAAGUGGCUGUGGCUAGACUGAC showed a self-cleavage of 0.02.
Variant GGGAGAGCUCAACACAGGGUGGCAAAGUGGCUGUGGCUAGUCUGCU has a self-cleavage of 0.01.
GGGAGAGCUCAACACAGGGUCGCUAAGUGGCUGUGGCUAGACUGCC showed a self-cleavage of 0.03.
GGGAGAGCUCAACACAGGGUGGCAAAGUGUCUGGGGCUAGACUGCC gave a self-cleavage of 0.01.
With GGGAGAGCUCAACACAGGGUGGCAAAGUGGCUGUGGCUAGACUCCC the self-cleavage was 0.71.
For GGGAGAGCUCAACACAGUGUGGCAAAGUGGCUGUGACUAGACUGCC, the self-cleavage was 0.47.
GGGAGAGCUCAACACAGCGUGGAAGAGUGGAUGUGGCCAGACUGCC showed a self-cleavage of 0.08.
GGGAGAGCUCAACACAGCGUGGAAAAGUGGCUGUGGGUAAUAUGCC gave a self-cleavage of 0.15.
With GGGAGAGCUCAACACAGCGUGGAAAAGUGGCUGUGGCUAGAGUGCC the self-cleavage was 0.
In the case of GGGAGAGCUCAACACAGCGUGGAAAAGUGUCUGUGGUUAGACUCCC, the self-cleavage is reported as 0.01.
Variant GGGAGAGCUCAACACAGCGUGGAAAAGAGGCUGUGGCUAGACUGCC has a self-cleavage of 0.08.
For GGGAGAGCUCAACACAGCGUGGGUAAGUGGCUGUGGCUAGACUGCC, the self-cleavage was 0.41.
Variant GGGAGAGCUCAACACAGCGUGGGAAAGUGGCUGUGGCUAGAGUGCC has a self-cleavage of 0.01.
GGGAGAGCUCAACACAGCGUGGGAAAGUGGCUGUGGCUAGAUUGCC showed a self-cleavage of 0.63.
In the case of GGGAGAGCUCAACACAGCGUGGGAAAGUGGCUGUGGCUAGACUGAC, the self-cleavage is reported as 0.11.
GGGAGAGCUCAACACAGCGUGGGAAAGUGGCUGUGGCUAGACCGCC gave a self-cleavage of 0.18.
For GGGAGAGCUCAACACAGCGUGGUAAAGUGUCUGUGGCUAGACUGCC, the self-cleavage was 1.4.
Variant GGGAGAGCUCAACACAGCGUGGCAAAGUGGAGGUGGCUAGACUGCC has a self-cleavage of 0.09.
For GGGAGAGCUCAACACAGCGUGGCAAAGUGGAUGGAGCUAGACUGCC, the self-cleavage was 0.
Variant GGGAGAGCUCAACACAGCGUGGCAAAGUGGGUGUGGCUAGACUGGC has a self-cleavage of 0.17.
GGGAGAGCUCAACACAGCGUGGCAAAGUGGGUACGGCUAGACUGCC showed a self-cleavage of 0.09.
Variant GGGAGAGCUCAACACAGCGUGGCAAAGUGGUUGUGGAUAGACUGCC has a self-cleavage of 0.02.
Variant GGGAGAGCUCAACACAGCGUGGCAAAGUGGUUGUGGCUAGACUUCC has a self-cleavage of 0.09.
GGGAGAGCUCAACACAGCGUGGCAAAGUGGCUGUGGAUAGGCUGCC gave a self-cleavage of 0.31.
Work on GGGAAUGCUCAACACAGCGUGGCAAAGUGGCUGUGGCUAGACAACC yielded a self-cleavage of 0.04.
Variant GGGAAAGCUCGACACAGCGUGGCAAAGUGGCUGUGGCUAGACUGCC has a self-cleavage of 0.06.
Variant GGGAAAGCUCAACACAGCGUGGCAAAGUGGCUGUGGGUAGACUGCC has a self-cleavage of 0.16.
GGGAAAACUCAACACAGCGUGGCAAAGUGGCUGUUGCUAGGCUGCC showed a self-cleavage of 0.21.
Work on GGGAAAGCUCAACACAGCGUGGCAAAGUGAUUGUGGCUAGACUGCC yielded a self-cleavage of 0.03.
Work on GGGAAAGCUCAACACAGCGUGGCAAAGUGGCUUUGGCUAGAGUGCC yielded a self-cleavage of 0.09.
With GGGAAAGCUCAACACAGCGUGGCAAAGUGGCUGUUGCUAGACUGUC the self-cleavage was 0.15.
With GGGAAAGCUCAACACAGCGUGGCAAAGAGGCUGUGGCUAGACUGCA the self-cleavage was 0.03.
GGGAAAGCUCAACACAGCGUGGCAAAGUGGCUGGAGCUAUACUGCC gave a self-cleavage of 0.08.
In the case of GGGACAGCUCGACACAGCGUGGCAAAGUGGCUGUGGCUAGACUUCC, the self-cleavage is reported as 0.03.
For GGGACAGCUCUACACAGCGUGACAAAGUGGCUGUGUCUAGACUGCC, the self-cleavage was 0.02.
With GGGACAGCUCAACACAGCGUGGCAAAGUGGCUGUGGCUCGACUGCC the self-cleavage was 0.37.
GGGACAGAUCAACACAGCGUGGCAAAGUGGCUGUGGCUUGACUGCC gave a self-cleavage of 0.21.
Variant GGGACAGCUCAAGACAGCGUGGCAAAGUGGCUGUGACUAGACUGCC has a self-cleavage of 0.13.
GGGACAGCUCAACAAAGCAUGGCAAAGUGGCAGUGGGUAGACUGCC showed a self-cleavage of 0.01.
GGGACAGCUCAACACAGCGUGGCAAAGUGGCUGUGGCUAGACUGUC gave a self-cleavage of 0.08.
GGGACAGCUCAACACACCGUGGCAAAGUGGCUGUGGCUAGACUGCC showed a self-cleavage of 0.02.
Variant GGGACAGCUCAACACAGCGUGACAAAUUGGCUGUGGCGAGACUGCC has a self-cleavage of 0.03.
In the case of GGGACAGCUCAACACAGCGUGGCAAAGUGGCUAUGGCUACAUUGCC, the self-cleavage is reported as 0.08.
Variant GGGACAGCUCAACACAGCGUGGCAAAGUGGCUGCGGCUAGACUUCC has a self-cleavage of 0.01.
In the case of GGGAUAGCUCAACACAGCGUGGCAGAGUGCCUGUGGCUAGACUGCC, the self-cleavage is reported as 0.53.
